Molecules are shown by their SMILES. Among all 310,000 compounds or so, about 2,200 (0.71%) showed an effect of 50% or more. The effect is printed as a negative number. This is one part of the list.

The target of the test is human ether-à-go-go-related gene (hERG) potassium channel (human, UniProt Q12809). Briefly: primary screen, population patch clamp on CHO cells stably expressing hERG.
Chain of human ether-à-go-go-related gene (hERG) potassium channel (Q12809 whole entry, looked up): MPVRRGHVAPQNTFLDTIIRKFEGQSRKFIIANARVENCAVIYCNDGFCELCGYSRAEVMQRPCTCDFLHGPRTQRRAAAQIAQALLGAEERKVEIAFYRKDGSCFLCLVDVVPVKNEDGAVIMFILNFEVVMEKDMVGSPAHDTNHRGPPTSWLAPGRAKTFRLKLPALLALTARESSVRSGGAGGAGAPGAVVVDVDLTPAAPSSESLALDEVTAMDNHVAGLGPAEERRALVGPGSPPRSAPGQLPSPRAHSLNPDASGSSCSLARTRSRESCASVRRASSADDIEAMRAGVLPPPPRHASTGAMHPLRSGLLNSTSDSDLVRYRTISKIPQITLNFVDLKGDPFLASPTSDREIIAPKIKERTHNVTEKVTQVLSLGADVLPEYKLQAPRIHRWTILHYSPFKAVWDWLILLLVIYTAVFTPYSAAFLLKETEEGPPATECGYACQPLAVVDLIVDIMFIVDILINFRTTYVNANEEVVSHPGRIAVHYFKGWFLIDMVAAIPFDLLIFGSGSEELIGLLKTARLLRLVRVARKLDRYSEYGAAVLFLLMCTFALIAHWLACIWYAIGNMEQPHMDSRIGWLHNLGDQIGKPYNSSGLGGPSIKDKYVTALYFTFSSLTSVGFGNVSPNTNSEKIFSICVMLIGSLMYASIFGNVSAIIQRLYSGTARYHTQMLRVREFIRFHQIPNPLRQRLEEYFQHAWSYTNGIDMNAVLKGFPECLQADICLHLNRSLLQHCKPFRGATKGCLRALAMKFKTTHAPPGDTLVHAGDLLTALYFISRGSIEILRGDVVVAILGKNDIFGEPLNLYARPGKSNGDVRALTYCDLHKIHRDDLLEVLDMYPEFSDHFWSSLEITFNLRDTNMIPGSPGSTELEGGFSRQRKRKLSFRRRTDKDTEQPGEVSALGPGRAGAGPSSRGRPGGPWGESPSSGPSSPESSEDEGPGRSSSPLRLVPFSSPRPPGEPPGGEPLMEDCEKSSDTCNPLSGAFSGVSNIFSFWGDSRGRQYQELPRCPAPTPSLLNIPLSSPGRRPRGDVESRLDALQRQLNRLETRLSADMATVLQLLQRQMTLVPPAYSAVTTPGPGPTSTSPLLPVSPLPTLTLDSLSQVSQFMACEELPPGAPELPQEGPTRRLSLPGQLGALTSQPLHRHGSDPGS
Take `O=C(Nc1ccccn1)c1cccc(S(=O)(=O)N2CCCc3ccccc32)c1`: the “hERG current change (%, negative = inhibition) at 1uM” value is -3.46%.

Regarding `Cc1ccc(N(Cc2ccccc2)C(=O)c2ccc(S(=O)(=O)N3CCOCC3)cc2)cc1`, the “hERG current change (%, negative = inhibition) at 1uM” value is reported as -0.928%. `CSc1nc2ccc(NS(=O)(=O)c3ccccc3F)cc2s1`: the “hERG current change (%, negative = inhibition) at 1uM” value came to 14.7%. Under `CC1(C)Cc2c(sc3c2c(N)nc(=S)n3Cc2ccc(Br)cc2)CO1` stands 7.9%. Under `O=C(CCCn1c(=O)c2sccc2n(CC(=O)NCC2CCCO2)c1=O)NCc1ccco1` (stereo not drawn) stands 5.26%; under `Cn1c(SCC(=O)N2c3ccccc3Sc3ccccc32)nnc1-c1ccco1`, 2.91%.

For the compound `COc1ccc2cc3cc(C(=O)NCc4ccco4)oc3nc2c1`, the “hERG current change (%, negative = inhibition) at 1uM” value was 10.3%. As for `O=C(C1CC(=O)N(c2ccc(F)cc2)C1)N1CCCCC1` (stereo not drawn), the “hERG current change (%, negative = inhibition) at 1uM” value turned out to be 8.04%. In the case of `O=C(c1cc([N+](=O)[O-])ccc1Cl)N1CCc2ccccc21`, the “hERG current change (%, negative = inhibition) at 1uM” value turned out to be 8.54%. Under `COCCN1CN=C(Nc2nc3ccccc3s2)NC1` stands -0.0738%; under `CCCN(Cc1ccco1)S(=O)(=O)c1ccc(OC)c(OC)c1`, 7.74%; under `O=C(NCN1CCN(c2ccccc2)CC1)c1cnccn1`, 16.4%. For the compound `CCOC(=O)c1nnsc1-c1ccc(-c2snnc2C(=O)OCC)cc1`, the “hERG current change (%, negative = inhibition) at 1uM” value is listed as -2.7%. `CCNCc1cc(Br)c(OCC(=O)Nc2ccccc2)c(OC)c1.Cl`: the “hERG current change (%, negative = inhibition) at 1uM” value is 5.7%.

Consider `COc1ccc(NC(=O)COC(=O)Cn2nnc3ccccc32)cc1`, for which the “hERG current change (%, negative = inhibition) at 1uM” value worked out at 9.24%. Under `CCC1=C(OC(=O)N(CC)CC)N2C(=O)OC(=NCC3CC3)[C@]2(Cc2ccccc2)[C@H]2C1=CC[C@H]1C(=O)N(C)C(=O)[C@H]12` stands 3.55%. Under `Cc1nc(N)sc1C(=O)N/N=C/c1c[nH]c2ccccc12` stands 3.83%. For the compound `Cc1ccc(NC(=O)Cc2csc(-c3ccccc3)n2)cc1F`, the “hERG current change (%, negative = inhibition) at 1uM” value turned out to be 7.58%. As for `CCOC(=O)Cc1cc(=O)[nH]c(/N=C(\N)Nc2ccc(C)cc2C)n1`, the “hERG current change (%, negative = inhibition) at 1uM” value is on record as 10.8%.

As for `COc1ccc(N(CC(=O)NCc2ccc3c(c2)OCO3)S(=O)(=O)c2ccccc2[N+](=O)[O-])c(OC)c1`, the “hERG current change (%, negative = inhibition) at 1uM” value is given as -3.17%. For the compound `COc1ccc(-n2nnnc2SCC#CCO)cc1`, the “hERG current change (%, negative = inhibition) at 1uM” value is listed as -18.2%. In the case of `CCCCN(C(=O)c1nn(C)c(=O)c2ccccc12)c1c(N)n(CCC)c(=O)[nH]c1=O`, the “hERG current change (%, negative = inhibition) at 1uM” value is given as 0.227%.

Take `COc1ccc(N2CCN(C(=O)CCCCCn3c(=S)[nH]c4cc5c(cc4c3=O)OCO5)CC2)cc1`: the “hERG current change (%, negative = inhibition) at 1uM” value is reported as 13.7%.

For `CC(C)C(NC(=O)c1ccc(F)cc1)C(=O)Nc1cccnc1` (stereo not drawn), the “hERG current change (%, negative = inhibition) at 1uM” value is on record as 11.3%. Under `O=C(c1ccncc1)N1CCc2ccccc2C1` stands 3.22%. As for `O=C(CCn1c(=O)sc2ccccc21)NCCN1CCOCC1`, the “hERG current change (%, negative = inhibition) at 1uM” value is on record as 14.5%. Under `CC(C)c1nc(SCC(=O)NC2CCCCC2)c2ccccc2n1` stands 12.6%; under `CCN1CCN(CC(=O)n2c3c(c4ccccc42)CC(C)CC3)CC1` (stereo not drawn), 15.8%. Under `O=C(NCc1ccc2c(c1)OCO2)c1cc(COc2c(F)cccc2F)on1` stands -1.42%; under `c1ccc(-c2cc3c(NCC4COc5ccccc5O4)ncnc3s2)cc1` (stereo not drawn), 16%. On to `Cc1ccc(OCCC(=O)OCC(=O)N2CC(=O)Nc3ccccc32)cc1`, for which the “hERG current change (%, negative = inhibition) at 1uM” value came out at 9.55%.

Turning to `O=C(Nc1cccs1)N1CCN(c2ncccn2)CC1`, the “hERG current change (%, negative = inhibition) at 1uM” value is 10.4%.

Take `O=C(COc1ccc(S(=O)(=O)N2CCOCC2)cc1)NCCCn1ccnc1`: the “hERG current change (%, negative = inhibition) at 1uM” value is given as 4.06%. In the case of `COc1cc(/C=C2\C(=O)ON=C2c2ccccc2)cc(OC)c1OC`, the “hERG current change (%, negative = inhibition) at 1uM” value worked out at 6.68%. Consider `Cc1nc(Nc2nc3ccccc3o2)nc(C)c1C`, for which the “hERG current change (%, negative = inhibition) at 1uM” value came to 10%. Take `Cc1ccc(N(CC(=O)NCC2CCCO2)C(=O)CCC(=O)Nc2ccccn2)cc1` (stereo not drawn): the “hERG current change (%, negative = inhibition) at 1uM” value is on record as 8.18%. As for `CCCCc1n[nH]c(=S)n1Cc1ccc(Cl)cc1`, the “hERG current change (%, negative = inhibition) at 1uM” value is given as 3.48%. On to `Cc1cc2c(cc1C)N(C(=O)CSc1nncn1C)C(C)(C)c1ssc(=S)c1-2`, for which the “hERG current change (%, negative = inhibition) at 1uM” value is listed as -2.99%. For the compound `Cc1cccc(OCC(=O)Nc2ccc(C(=O)Nc3ccccc3C(=O)O)cc2)c1C`, the “hERG current change (%, negative = inhibition) at 1uM” value worked out at 4%. Consider `NC(=O)N=Nc1c(O)n(Cc2ccccc2)c2ccc(Br)cc12`, for which the “hERG current change (%, negative = inhibition) at 1uM” value turned out to be 4.36%.

For the compound `Fc1ccccc1-c1nc(NCCCN2CCOCC2)c2ccccc2n1`, the “hERG current change (%, negative = inhibition) at 1uM” value was -9.4%. Under `C=CCOc1ccccc1/C=C/C(=O)O` stands -8.5%; under `CCC1(C)Cc2ccccc2-c2c1c(=O)n(-c1ccc(C)cc1)c1nnnn21` (stereo not drawn), 8.67%; under `COc1ccc(S(=O)Cc2ccc(C(=O)NC3CC3)o2)cc1` (stereo not drawn), 13.7%. With `COc1ccccc1C(=O)COC(=O)c1ccc(Cl)nc1`, the “hERG current change (%, negative = inhibition) at 1uM” value turned out to be 3.01%.

The values above are taken from publication PMC4336329 (PLoS ONE, 2015).
